Data from the supplement of paper PMC6135742.
Where a name gives a salt, the structure may show the parent alone. ± gives the standard deviation of the averaged measurements. Whole data set: some 2,600 compounds, median “total cell number (DAPI+ nuclei) relative to DMSO vehicle control” near -1.4, cut for the lowest 2% near -23. This is one part of the list.

What follows are compounds tested on jimpy (Plp1 jimpy) mouse iPSC-derived oligodendrocyte progenitor cells (assay: total cell number (DAPI+ nuclei) relative to DMSO vehicle control (SDs above negative control mean); higher = more surviving cells). Conditions: 10 µM; 3 days.
Work on COc1cc(-c2cc(-c3cccc(O)c3)cnc2N)cc(OC)c1OC yielded a total cell number of -10.9. Work on COc1cc2ncnc(Nc3ccc(O)c(Br)c3)c2cc1OC yielded a total cell number of -7.29. Compound CCCC(=O)Nc1cccc(NC(=O)c2ccccc2Br)c1 has a total cell number of -0.0444. Cc1cccc(C2CN(C)CCc3c2cc(O)c(O)c3Cl)c1 (configuration not stated) showed a total cell number of 0.122. C=C1[C@H](CO)[C@@H](O)C[C@@H]1n1cnc2c(=O)[nH]c(N)nc21 [Entecavir Hydrate] was tested, and the total cell number was -5.3. CC(=O)O[C@]1(C(C)=O)CC[C@H]2[C@@H]3C=C(C)C4=CC(=O)CC[C@]4(C)[C@H]3CC[C@@]21C [Megestrol Acetate] gave a total cell number of 6.62. For CN(C)C(=O)c1cc2cnc(Nc3ccc(N4CCNCC4)cn3)nc2n1C1CCCC1, the total cell number was 2.64. CC[C@@]1(O)C(=O)OCc2c1cc1n(c2=O)Cc2cc3c(CN(C)C)c(O)ccc3nc2-1 [Topotecan hydrochloride hydrate] was tested, and the total cell number was -9.57. Work on CC[C@@]1(O)C(=O)OCc2c1cc1n(c2=O)Cc2cc3c(CN(C)C)c(O)ccc3nc2-1 [Topotecan HCl] yielded a total cell number of -21.7. Cc1cc(Nc2cc(CN3CCOCC3)c3nc(C)c(Cc4ccc(Cl)cc4F)n3n2)n[nH]1 was tested, and the total cell number was -13.9. Nc1nnc(-c2cccc(Cl)c2Cl)c(N)n1 [Lamotrigine] showed a total cell number of -1.75 ± 0.31. With Oc1cc(O)cc(/C=C/c2ccc(O)c(O)c2)c1 [Piceatannol] the total cell number was -8.4 ± 1.1. With CCN1CCN(c2ccc(Nc3cc(N(C)C(=O)Nc4c(Cl)c(OC)cc(OC)c4Cl)ncn3)cc2)CC1 the total cell number was -1.51. Nc1nc(=O)[nH]cc1F [Flucytosine] was tested, and the total cell number was 2.35. Compound N=C(N)c1ccc(N=NNc2ccc(C(=N)N)cc2)cc1 [Diminazene Aceturate] has a total cell number of -2.28. With C[C@H](CCC(=O)O)[C@H]1CC[C@H]2[C@@H]3C[C@H](O)[C@@H]4C[C@H](O)CC[C@]4(C)[C@H]3CC[C@]12C [Hyodeoxycholic acid (HDCA)] the total cell number was -0.0458. With NC(=O)Nc1sc(-c2ccc(F)cc2)cc1C(N)=O the total cell number was -10.4. CC1(C)C(=O)N(CCN2CCC(C(=O)c3ccc(F)cc3)CC2)c2ccccc21 [LY-310,762 hydrochloride] showed a total cell number of -4.62. For CC(C)(C)OC(=O)N[C@H]1CCCCC/C=C\[C@@H]2C[C@@]2(C(=O)NS(=O)(=O)C2CC2)NC(=O)[C@@H]2C[C@@H](OC(=O)N3Cc4cccc(F)c4C3)CN2C1=O [Danoprevir (ITMN-191)], the total cell number was -1.1. In the case of COc1ccnc2[nH]cc(C(=O)C(=O)N3CCN(C(=O)c4ccccc4)C[C@H]3C)c12, the total cell number is reported as -0.607. CCCC(=O)Nc1ccc(OCC(O)CNC(C)C)c(C(C)=O)c1 (configuration not stated) [Acebutolol HCl] gave a total cell number of -2.32. C[C@@H]1O[C@@H](OC[C@H]2O[C@@H](Oc3c(-c4ccc(O)c(O)c4)oc4cc(O)cc(O)c4c3=O)[C@H](O)[C@@H](O)[C@@H]2O)[C@H](O)[C@H](O)[C@H]1O [Rutin] was tested, and the total cell number was -0.749.
